As usually defined, the % Inhibition is the change of the read-out against control, counted positive when it falls.

Out of some 150,000 compounds screened, about 540 (0.36%) showed an effect of 50% or more. Some of the results follow.

We go through 43 compounds from ChEMBL document CHEMBL4888484, “Replenishing the malaria drug discovery pipeline: Screening and hit evaluation of the MMV Hit Generation Library 1 (HGL1) against asexual blood stage Plasmodium falciparum ,using a nano luciferase reporter read-out” (2022).

For this assay, the system named is Plasmodium falciparum. As to the kind of experiment: Primary screen in NF54 nanoGlo assay, in single point, at 2uM, 72h; a lower Z score goes with more inhibition. The format is functional, Erythrocyte. To be noted: timepoint 72 hour.
Take `Cc1ncsc1CNC(C)CC(O)c1ccco1` (stereo unspecified): the “% Inhibition” value turned out to be 0% and the Z score is reported as -0.01.

For the compound `N#Cc1cccc(CN[C@H]2CCN(CC(F)(F)F)C2)c1`, the “% Inhibition” value is -5% and the Z score was 0.74.

Regarding `CC[C@H]1CCc2c(sc(=O)n2Cc2nccn2C(F)F)C1`, the “% Inhibition” value is reported as -40% and the Z score is reported as 4.74.

With `C#CCOc1ccc(N(C)Cc2nnc(CC)n2C)cc1`, the “% Inhibition” value is recorded as -7% and the Z score is recorded as 0.94.

Regarding `Cc1nc(CN[C@H](c2cc(F)ccc2F)C2CC2)oc1C`, the “% Inhibition” value is on record as 5% and the Z score is reported as -0.66.

Take `COc1ccc(CN2C(=O)N[C@@H](CC(=O)Nc3ccccn3)C2=O)cc1OC`: the “% Inhibition” value is recorded as -10% and the Z score is listed as 1.29.

With `CCc1ccc(N2C(=O)c3cc(-c4ccc(OC)cc4)nn3C[C@@]2(C)C(=O)NCc2ccccc2OC)cc1`, the “% Inhibition” value is 12% and the Z score is -1.85.

Consider `N#Cc1c2n(c(=O)n(CC(=O)N(Cc3ccccc3)Cc3ccccc3)c1=O)CCC2`, for which the “% Inhibition” value is listed as 12% and the Z score is -1.45.

For the compound `Cc1cc(C)c(C#N)c(NCc2cc(CC(C)C)no2)n1`, the “% Inhibition” value was -8% and the Z score is listed as 0.89.

On to `CC(=O)N1CCO[C@@H](CNC(=O)c2ccn(C)c2C)C1`, for which the “% Inhibition” value is reported as -5% and the Z score came to 0.72.

For `Cc1cc(C)n2c(-c3nc(C4CC4)n[nH]3)nnc2n1`, the “% Inhibition” value is given as -14% and the Z score turned out to be 2.56.

With `COCCNC(=O)COc1ccc2c(C(C)C)cc(=O)n(CC3CC3)c2c1`, the “% Inhibition” value is -8% and the Z score turned out to be 0.92.

In the case of `COC(=O)C1(NCc2noc(C)n2)CCC1`, the “% Inhibition” value is on record as -15% and the Z score was 1.89.

Consider `Cc1cc(C)cc(CN2CCN(Cc3cnn(C)c3C3CC3)CC2=O)c1`, for which the “% Inhibition” value is reported as -5% and the Z score was found to be 0.65.

In the case of `CCOC(=O)C1CCCN(C(=O)C2CCCN(c3cccc4c3C(=O)N(Cc3ccccc3Cl)C4=O)C2)C1` (stereo unspecified), the “% Inhibition” value came out at 4% and the Z score was -0.67.

`Cc1ccc(CC(C)NC(=O)NCCC2CCCO2)s1` (stereo unspecified): the “% Inhibition” value is -22% and the Z score was found to be 2.04.

In the case of `C[C@]1(Cc2cc(F)c(F)c(F)c2)CCC(=O)N1`, the “% Inhibition” value is given as -10% and the Z score is reported as 1.31.

In the case of `O=C1CCCc2cc(-c3csc(NC4CC4)n3)ccc2N1`, the “% Inhibition” value was -8% and the Z score was determined as 1.

For the compound `O=S(=O)(Nc1ccc2c(c1)COC2)c1cnn(CC(F)F)c1`, the “% Inhibition” value was -3% and the Z score is 0.33.

On to `CO[C@H]1C[C@H]2CC[C@@H](C1)N2C(=O)c1ccc(F)c(Cl)c1`, for which the “% Inhibition” value is -12% and the Z score was determined as 1.82.

Turning to `Cc1c[nH]c(C(=O)N[C@@H]2COCC[C@@H]2OCC2CCC2)n1`, the “% Inhibition” value is recorded as -12% and the Z score is given as 2.3.

On to `Cc1onc(CC(=O)NC2(C)CCOC2C)c1C#N` (stereo unspecified), for which the “% Inhibition” value was -14% and the Z score stood at 2.15.

On to `CC(C)c1csc(-c2c(-c3ccccc3)ncn2[C@@H](CO)C(C)C)n1`, for which the “% Inhibition” value was -3% and the Z score was 0.43.

For `Fc1ccc2ccnc(N3CCC[C@@]4(CCOC4)C3)c2c1`, the “% Inhibition” value was -9% and the Z score turned out to be 1.8.

As for `CCn1c(C)cc(=O)c(C(=O)O)c1COc1ccccc1`, the “% Inhibition” value is given as -5% and the Z score is given as 0.68.

Take `Brc1ccc2nc(N3CCCC3)nc(-c3ccccc3)c2c1`: the “% Inhibition” value is -7% and the Z score is given as 0.87.

For `CC(C)[C@@H]1CN(Cc2nnc(C3CC3)o2)CCCN1Cc1ccc(F)cc1`, the “% Inhibition” value is -2% and the Z score was 0.42.

In the case of `N#CCN1CCC(CNC(=O)C2CC=CC2)CC1`, the “% Inhibition” value was -12% and the Z score was found to be 1.01.

For `CCOCCCNCc1ccc(F)cc1`, the “% Inhibition” value is -10% and the Z score was found to be 1.59.

Regarding `Cc1csc([C@@H]2CCCN2Cc2ccc3cn[nH]c3c2)n1`, the “% Inhibition” value is on record as -14% and the Z score worked out at 1.23.

For the compound `COc1cc(-c2n[nH]cc2-c2nc3cc(C)c(C)cc3[nH]2)cc(OC)c1OC`, the “% Inhibition” value is -5% and the Z score was determined as 0.93.

Consider `Cc1cccc(NC(=O)Cc2csc(-n3nc(C)c(Cl)c3C)n2)c1C`, for which the “% Inhibition” value is recorded as -16% and the Z score amounted to 2.98.

In the case of `CCn1cc(C(=O)NCc2cc(=O)n3ccccc3n2)c(C)n1`, the “% Inhibition” value is -4% and the Z score is recorded as 0.71.

In the case of `CCC[C@H]1CN(S(=O)(=O)c2cc(C)cc3cccnc23)C[C@@H]1N`, the “% Inhibition” value is recorded as -5% and the Z score stood at 0.63.

`CC1CN(C(CNS(=O)(=O)c2cnn(C)c2)c2c(F)cccc2Cl)CCO1` (stereo unspecified): the “% Inhibition” value is -1% and the Z score was 0.1.

In the case of `COC1CCCN(c2ncnc(N3CCCC(OC)C3)c2C)C1` (stereo unspecified), the “% Inhibition” value is listed as -1% and the Z score was determined as 0.08.

As for `O=C(c1ccc[nH]1)N1CCC[C@H]1c1ccc2c(c1)OCCCO2`, the “% Inhibition” value was 2% and the Z score is recorded as -0.23.

As for `CC(C)(C)C(=O)NCCCC(=O)N1CCCCCC1`, the “% Inhibition” value is reported as -7% and the Z score amounted to 0.95.

For `CC[C@@H](C(=O)NC(C)(C)C)N1CC(Oc2ccccc2)C1`, the “% Inhibition” value is recorded as -2% and the Z score is given as 0.47.

`CCCCNc1cc(N2CCC[C@H](c3nc(C)no3)C2)nc(N)n1`: the “% Inhibition” value is recorded as 2% and the Z score was -0.3.

With `Cc1ccc(-n2cc(-c3ccccc3)nc2NC(=O)CN(CCN2CCOCC2)C(=O)c2ccccc2)cc1F`, the “% Inhibition” value is reported as -10% and the Z score is 1.9.

For `CN1CCN(C[C@H]2CN(c3ccc4nnc(C(F)(F)F)n4n3)CCO2)CC1`, the “% Inhibition” value amounted to 5% and the Z score is reported as -0.85.

As for `COc1ccc(F)c(CN2CC[C@](C)(O)[C@H](C)C2)c1`, the “% Inhibition” value was -5% and the Z score came to 0.96.
